Test results reported in PubChem BioAssay AID2675 (National Center for Advancing Translational Sciences (NCATS), 2010).
Among all 280,000 compounds or so, about 100 (0.036%) were called active. The inconclusive results got no clear call from the source; some entries with a clear call stand among them for comparison. Calls follow the shape of the dose curve; as a rule, active = well fitted inhibition curve with a large enough effect in the signal ratio, with a control signal flat (not every such curve was filed as active); inconclusive = small, poorly fitted or top-dose-only effect, or effect the other way, or a change in a side signal; inactive = no such curve, though single readings can be large or run the other way; the % refers to the signal ratio. Where the call is inconclusive, the potency comes from a doubtful curve fit. A note “side channel” means that the fit belongs to a control or component signal, not to the main read-out.

target: Muscleblind-like protein 1 (Homo sapiens) (UniProt Q9NR56); assay: qHTS Assay for Inhibitors of MBNL1-poly(CUG) RNA binding; conditions: TR-FRET MBNL1-His/biotin-(CUG)12 binding, 665/545 ratio; series mostly up to 57.5 µM
Chain of UniProt Q9NR56 (Q9NR56 whole entry, looked up): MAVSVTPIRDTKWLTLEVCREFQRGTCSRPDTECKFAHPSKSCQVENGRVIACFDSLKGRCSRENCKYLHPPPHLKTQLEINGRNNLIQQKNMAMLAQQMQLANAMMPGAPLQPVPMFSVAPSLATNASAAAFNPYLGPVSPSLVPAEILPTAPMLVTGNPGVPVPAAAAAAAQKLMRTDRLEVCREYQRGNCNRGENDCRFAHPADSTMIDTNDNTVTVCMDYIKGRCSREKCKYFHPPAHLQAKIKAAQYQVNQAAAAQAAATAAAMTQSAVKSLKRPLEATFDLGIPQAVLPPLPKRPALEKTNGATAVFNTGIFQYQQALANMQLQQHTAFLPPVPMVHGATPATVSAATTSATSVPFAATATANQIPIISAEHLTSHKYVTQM
In short: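 TR-FRET between His-tagged MBNL1 and biotin-(CUG)12 RNA, detected with Tb anti-His antibody (0.055 ng/ul) and streptavidin-XL665 (5 nM), 60 min at room temperature. Compounds titrated 92 nM to 58 uM; 665/545 nm ratio normalized to buffer and complex controls.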
Potency is read from the fitted curve at half-maximal effect; tags tell the direction and shape of the fitted curve or compound fluorescence and quenching.

| Compound | Potency |
| --- | --- |
| Cc1ccc(C(=O)N/C(=C\c2ccc(Cl)cc2)C(=O)NCCN2CCOCC2)cc1 | inactive |
| O=C(O)c1ccc(NS(=O)(=O)c2ccc(N3CCCC3)c([N+](=O)[O-])c2)cc1 | inconclusive: 39.8 µM [quencher, side channel, single point] |
| O=c1[nH]c(N/N=C\c2ccc3c(c2)OCO3)nc2ccccc12 | inconclusive: 25.1 µM [quencher, side channel, partial curve] |
| O=C(O)c1cc(C(=O)O)cc(-c2ccc(/C=c3/sc4nc5ccccc5n4c3=O)o2)c1 | inactive |
| Cc1ccccc1/C=C1\CCCc2ccccc2C1=O | inactive |
| COc1ccc2cc3cc(C(=O)NCCCN4CCC(C)CC4)oc3nc2c1 | inconclusive: 12.6 µM [quencher, side channel, partial curve] |
| Cc1cc(C=C2C(=O)c3ccccc3C2=O)c(C)n1-c1ccc(C(=O)O)cc1 | inconclusive: 12.6 µM [quencher, side channel, partial curve] |
| COc1ccc(-n2nc(C(=O)NCC(=O)N3CCN(c4cccc(Cl)c4)CC3)c3ccccc3c2=O)c(OC)c1 | inconclusive: 39.8 µM [fluorescent, side channel, single point] |
| COc1cc2ccccc2cc1C(=O)OCC(=O)N1CCOCC1 | inactive |
| Cc1sc2ncnc(SCC(=O)N3c4ccccc4Sc4ccc(Cl)cc43)c2c1C | inactive |
| COc1ccc2cc3cc(C(=O)N(C)C4CCCCC4)oc3nc2c1 | inactive |
| O=C(NCC1CCOCC1)c1ccc2nc(Cc3cccc(Cl)c3)oc2c1 | inconclusive: 39.8 µM [quencher, single point] |
| CC1CCN(S(=O)(=O)c2cc(F)ccc2CN2C(=O)c3cccnc3C2=O)CC1 | inconclusive: 11.2 µM [quencher, side channel, partial curve] |
| COc1ccc(NC(=O)CC2C(=O)N(c3ccc(OC)cc3)C(=O)N2CCN2CCN(C)CC2)cc1 (stereo not drawn) | inconclusive: 100 µM [inhibitor, single point] |
| COc1cccc(/C=C2\C(=O)C(=O)c3ccccc32)c1 | inconclusive: 22.4 µM [quencher, side channel, single point] |
| Cn1cc(Br)c(C(=O)N/N=C/c2cc3ccccc3nc2Cl)n1 | inconclusive: 11.2 µM [quencher, partial curve] |
| COc1cc(C(=O)NCCN2C(=O)S/C(=C\c3cccs3)C2=O)cc(OC)c1OC | inconclusive: 7.08 µM [quencher, side channel, full curve] |
| COC(=O)c1cc2c(ccn2-c2ccc(F)cc2)n1CC(C)C | inactive |
